Read counts are not given, so values of variants with three or more changes are uncertain.
B1: CPEB3 Ribozyme (parent)
chain: UAACAGGGGGCCACAGCAGAAGCGUUCACGUCGCAGCCCCUGUCAGAUUCUGGUGAAUCUGCGAAUUCUGCUGUAUAUCUC

Variants of: B1
Assay: self-cleavage, relative activity (ratio to wild type); higher = more cleavage; in vitro, sequencing
Outline: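 CPEB3 self-cleaving ribozyme mutant libraries were made by rounds of error-prone PCR, barcoded, and transcribed in vitro with T7 RNA polymerase for 5 hours at 37°C. Cleavage occurred during transcription and a 15 min DNase I step before EDTA stop. RNAs were reverse transcribed with template switching and Illumina-sequenced, with DNA sequencing mapping barcodes to variants. Relative activity is the variant's cleaved/total read fraction divided by wild type's (minimum 5 reads), averaged across three batches.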
For UAACAGGGGGCCACAGCAGAAGCGUUCACGUCGCGGCCCCUGUCAGAUUCUGGUGAAUCUGCGAACUCUGCUGUUUAUCAC [A35G U66C A75U U80A], the self-cleavage was 1.12. Variant UAACAGGGGGCCACAGCAGAAGCGUUCACGUCGCGGCCCCCGUCGGAUUCUGGUGCAUCUGCUAAUUCUGCUGUAUAUCUC [A35G U41C A45G A56C G63U] has a self-cleavage of 1.04. UAACAGGGGGCCACAGCAGAAGCGUUCACGUCGCGGCCCCCGUCAGAUUCUGGUGAAUCUGCGAAUUCUGCAGUAUAUCUC [A35G U41C U72A] gave a self-cleavage of 1.24. Work on UAACAGGGGGCCACAGCAGAAGCGUUCACGUCGCGGCCCCAGUCAGAUUCUUGUGAAUCUGCGGAUCCUGCGGUAUAUCUC [A35G U41A G52U A64G U67C U72G] yielded a self-cleavage of 0.08. Variant UAACAGGGGGCCACAGCAGAAGCGUUCACGUCGCGGCCCCCGUCAUAUUCUGGUGAAUCUGCGAAUUCCGCCGUAUAUCCC [A35G U41C G46U U69C U72C U80C] has a self-cleavage of 0.22. In the case of UAACAGGGGGCCACAGCAGAAGCGUUCACGUCGCGGCCCCUGUCAGAUUCUGGUGAACUUGCGAAUUCUGCUGUAUAUCUC [A35G U58C C59U], the self-cleavage is reported as 0.73. For UAACAGGGGGCCACAGCAGAAGCGUUCACGUCGCGGCCCCAGUCAGAUUCUGGCGAAUCUGCGAAUUCCGCUGUACAUCUC [A35G U41A U54C U69C U76C], the self-cleavage was 0.14. Variant UAACAGGGGGCCACAGCAGAAGCGUUCACGUCGCGGCCCCUGUCAGACUCUGGUGAAUCUGCGAAUUCUGCUGCAUAUCUC [A35G U48C U74C] has a self-cleavage of 1.14. UAACAGGGGGCCACAGCAGAAGCGUUCACGUCGCGGCCCCUGUCAGAUUCUGGAGAAUCUGCGAAUUCUGCUGUAUAUCCC [A35G U54A U80C] gave a self-cleavage of 1.28. Work on UAACAGGGGGCCACAGCAGAAGCGUUCACGUCGCGACCCCUGUCAGAUUCUGGUGGAUCUGCGAAUUCUGCUGUAUAUCUC [A35G G36A A56G] yielded a self-cleavage of 1.06. Work on UAACAGGGGGCCACAGCAGAAGCGUUCACGUCGCGGUCCCUGUCAGAAUCUGGUGAAUCUGCGAAUUCUGCUGUAUAUCUC [A35G C37U U48A] yielded a self-cleavage of 1.25. UAACAGGGGGCCACAGCAGAAGCGUUCACGUCGCGGCCCCUGUCAGAUUCCGGUGAAUCUGCGAAUUCUGCUGUACAUCUC [A35G U51C U76C] showed a self-cleavage of 1.27. Variant UAACAGGGGGCCACAGCAGAAGCGUUCACGUCGCGGCCACUGUCAGAUUCUGGUGAAUCUGCGAAUUCUGCCGUAUAUCUC [A35G C39A U72C] has a self-cleavage of 1.06. UAACAGGGGGCCACAGCAGAAGCGUUCACGUCGCGGCCUCUGUCAGAUUCUGGUGGAUCAGCGAAUUCUGCUGUAUAUCUC [A35G C39U A56G U60A] showed a self-cleavage of 0.92. For UAACAGGGGGCCACAGCAGAAGCGUUCACGUCGCGGCCCCUGUCAGAUUCUGGAGAAUCUGCGAAUUCUGCUGAAUAUCUC [A35G U54A U74A], the self-cleavage was 1.31. With UAACAGGGGGCCACAGCAGAAGCGUUCACGUCGCGACCCCUGUCAGAUUCUGGUGAACCUGCGAAUACCGCUGUAUAUCUC [A35G G36A U58C U67A U69C] the self-cleavage was 0.1. For UAACAGGGGGCCACAGCAGAAGCGUUCACGUCGCGGCCCCUGUCAGAUUCUGGUGAACCUGCGAAUCCUACUGUAUAUCUC [A35G U58C U67C G70A], the self-cleavage was 0.55. With UAACAGGGGGCCACAGCAGAAGCGUUCACGUCGCGGCCCCUGUCAGAUUCUGGCGAAUCUGCGAAUUCUGCAGUUUAUCUC [A35G U54C U72A A75U] the self-cleavage was 1.25. Variant UAACAGGGGGCCACAGCAGAAGCGUUCACGUCGCGGCCCCUGCCAGAUACUGGUGAACCUGCGAAUUCUGCUGUAUAUCUC [A35G U43C U49A U58C] has a self-cleavage of 0.03. In the case of UAACAGGGGGCCACAGCAGAAGCGUUCACGUCGCGGCCCCUGUCAGAUUCUGGAGUGUCUGCGAAUUCUGCUGUACAUCUC [A35G U54A A56U A57G U76C], the self-cleavage is reported as 1.1. With UAACAGGGGGCCACAGCAGAAGCGUUCACGUCGCGGCCUCUGUCAGGUUCUGGUGAAUCUGCGAAAUCUGCUGUAUGUCUC [A35G C39U A47G U66A A77G] the self-cleavage was 1. Work on UAACAGGGGGCCACAGCAGAAGCGUUCACGUCGCGGCCCCAGCCAGAUUCUGGUGAAUCUGCGAAUUCUGCUGUAUAUCUC [A35G U41A U43C] yielded a self-cleavage of 0.17. With UAACAGGGGGCCACAGCAGAAGCGUUCACGUCGCGGCCCAUGUCAGACUCUGGUGAAUCUGCGAAUUCUGCUGUAUAUCUC [A35G C40A U48C] the self-cleavage was 0.43. With UAACAGGGGGCCACAGCAGAAGCGUUCACGUCGCGGCCCCUGUCAGAAUCUGGUGAAUCUGCGAGUUCAGCUGUAUAUCUC [A35G U48A A65G U69A] the self-cleavage was 0.25. UAACAGGGGGCCACAGCAGAAGCGUUCACGUCGCGGGCCCUGUCAGGUUCUGGUGAAUCUGCGAAUUCUGCUGUAUAUCUC [A35G C37G A47G] showed a self-cleavage of 0.53. UAACAGGGGGCCACAGCAGAAGCGUUCACGUCGCGGCCCCUGUCAGAUUCAGGUGAAUCUGCGAAUUCUGCUGUAUACCUC [A35G U51A U78C] showed a self-cleavage of 1.35. In the case of UAACAGGGGGCCACAGCAGAAGCGUUCACGUCGCGGCCCCUGUCAUAUUCUGGUGAAUCUGCGAACUCUGCUGAAUAUCUC [A35G G46U U66C U74A], the self-cleavage is reported as 0.19. UAACAGGGGGCCACAGCAGAAGCGUUCACGUCGCGGCUCCUGUCAGAUUCUGGUGAAUCUGCGUAUUCUGCUGUAUAUCUC [A35G C38U A64U] gave a self-cleavage of 1.06. Work on UAACAGGGGGCCACAGCAGAAGCGUUCACGUCGCGGCCCCUGUCAGAUUCUGGUGAAUCUGGGAAUUCUGCUGAAUAUCUC [A35G C62G U74A] yielded a self-cleavage of 0.27. Work on UAACAGGGGGCCACAGCAGAAGCGUUCACGUCGCGCCCCCUGUCAGGUUCUGGUGAAUCUGCGAAUUCUGCUGUAUAUCUC [A35G G36C A47G] yielded a self-cleavage of 0.16. UAACAGGGGGCCACAGCAGAAGCGUUCACGUCGCGGCCCCUGUCAGAUUUUGGUGAAUCUGCGAGUUCUGCUGUAUAUCUC [A35G C50U A65G] gave a self-cleavage of 1.17. Variant UAACAGGGGGCCACAGCAGAAGCGUUCACGUCGCGGCCCCUGUCAGAUUCUAGUGAAUCUGCGAAUUCUGCUGUAUAACUC [A35G G52A U78A] has a self-cleavage of 1.28. Variant UAACAGGGGGCCACAGCAGAAGCGUUCACGUCGCGGCCCCAGUCAGAUUCAGGUGAAUCUGCGAAUUCUGCUGCAUAUCUC [A35G U41A U51A U74C] has a self-cleavage of 0.69. In the case of UAACAGGGGGCCACAGCAGAAGCGUUCACGUCGCGGCCCCAGUCAGAUUCUGGUGGAUCUGCGAAUUCUGCUGUAUAUCUC [A35G U41A A56G], the self-cleavage is reported as 0.27.
